By IC50 is meant the dose at which the fit gives 50% viability; where the fit passes the top or lowest dose, that dose stands as a limit. AUC, from the same fit, is the share of area under the viability curve across the 256-fold dose range: 1 means no effect, lower means more sensitive. For some assays here: Any top dose called inferred was derived from the fitted curves, not read from the paper. For some assays here: Drugs with an entry number were screened twice under separate entries, and the two screens often disagree.
Columns and labels:
Test in all cases: Viability of human cancer cell lines after 72 h of drug (GDSC screen)
[1] = compound: CC1=C(/C=C/C(C)=C/C=C/C(C)=C/C(=O)O)C(C)(C)CCC1 [Tretinoin]; details: top dose 10 µM; top dose inferred
Method: (§1)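 Human cancer cell lines in 384-well plates, medium with 10% serum, drug for 72 h over a 256-fold dose range (nine 2-fold or five 4-fold steps up to the top dose). Adherent lines were fixed and stained with the nucleic acid dye Syto60, suspension lines read with resazurin; signal relative to control wells, capped at 0 and 100%. One two-parameter sigmoid per drug and line, fitted in a mixed model over all curves with the slope shared within a line.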

[2] = compound: Cc1cccc(-c2[nH]c(C(C)(C)C)nc2-c2ccc3c(c2)OCO3)n1 [SB-505124]; details: top dose 10 µM; top dose inferred
Method: as §1

[3] = compound: Oc1cccc(-c2nc(N3CCOCC3)c3oc4ncccc4c3n2)c1 [PI-103]; details: top dose 10.24 µM
Method: as §1

[4] = compound: O=C(NCCCNc1nc(Nc2cccc(NC(=O)N3CCCC3)c2)ncc1I)c1cccs1 [BX-795]; details: top dose 5 µM; top dose inferred
Method: as §1

[5] = compound: COc1cc2c(NC3CCN(C(C)C)CC3)nc(C3CCCCC3)nc2cc1OCCCN1CCCC1 [UNC0638]
Method: as §1

[6] = compound: CCn1c(-c2nonc2N)nc2c(C#CC(C)(C)O)ncc(OC[C@H]3CCCNC3)c21 [GSK690693]; details: top dose 10.24 µM; top dose inferred
Method: as §1

[7] = top dose 20 µM, screen: GDSC drug entry 1236, top dose inferred
[8] = top dose 40 µM, screen: GDSC drug entry 245

Cell Line | AUC [1] | IC50 [1] | AUC [2] | IC50 [2] | AUC [3] | IC50 [3] | AUC [4] | IC50 [4] | AUC [5, 7] | IC50 [5, 7] | AUC [5, 8] | IC50 [5, 8] | AUC [6] | IC50 [6]
HCC1395 (breast, adherent) | 0.984 | > 10 µM | 0.971 | > 10 µM | 0.868 | > 10.2 µM | 0.951 | > 5 µM | 0.728 | 6.44 µM | 0.665 | 7.92 µM | 0.948 | > 10.2 µM
HCC1419 (breast, adherent) | 0.801 | 7.48 µM | 0.98 | > 10 µM | 0.715 | 3.39 µM | 0.956 | > 5 µM | 0.823 | 19.2 µM | 0.829 | > 40 µM | 0.885 | > 10.2 µM
HCC1428 (breast, adherent) | 0.879 | > 10 µM | 0.952 | > 10 µM | 0.854 | 9.25 µM | 0.97 | > 5 µM | 0.848 | 17.1 µM | 0.795 | 20.6 µM | 0.988 | > 10.2 µM
HCC1500 (breast, adherent) | 0.896 | > 10 µM | 0.961 | > 10 µM | 0.618 | 1.37 µM | 0.978 | > 5 µM | 0.79 | 9.26 µM | 0.703 | 9.56 µM | 0.958 | > 10.2 µM
HCC1569 (breast, adherent) | 0.949 | > 10 µM | 0.93 | > 10 µM | 0.332 | 0.186 µM | 0.927 | > 5 µM | 0.774 | 10.6 µM | 0.792 | 25.3 µM | 0.724 | 3.47 µM
HCC1937 (breast, adherent) | 0.982 | > 10 µM | 0.983 | > 10 µM | 0.615 | 1.39 µM | 0.973 | > 5 µM | 0.859 | > 20 µM | 0.778 | 18.8 µM | 0.871 | > 10.2 µM
HCC1954 (breast, adherent) | 0.969 | > 10 µM | 0.971 | > 10 µM | 0.938 | > 10.2 µM | 0.944 | > 5 µM | 0.846 | 18.3 µM | 0.843 | 35.6 µM | 0.656 | 1.87 µM
HCC-15 (lung squamous cell carcinoma, adherent) | 0.914 | > 10 µM | 0.958 | > 10 µM | 0.868 | > 10.2 µM | 0.763 | 2.3 µM | 0.838 | 19.5 µM | 0.788 | 23.1 µM | 0.963 | > 10.2 µM
HCC-44 (lung adenocarcinoma, adherent) | 0.986 | > 10 µM | 0.98 | > 10 µM | 0.503 | 0.653 µM | 0.684 | 1.01 µM | 0.779 | 7.99 µM | 0.605 | 4.82 µM | 0.951 | > 10.2 µM
HCC-56 (large intestine, adherent) | 0.985 | > 10 µM | 0.976 | > 10 µM | 0.946 | > 10.2 µM | 0.93 | > 5 µM | 0.856 | 16.8 µM | 0.702 | 9.39 µM | 0.987 | > 10.2 µM
HCC-78 (lung adenocarcinoma, adherent) | 0.976 | > 10 µM | 0.981 | > 10 µM | 0.282 | 0.137 µM | 0.896 | > 5 µM | 0.773 | 9.19 µM | 0.736 | 13.5 µM | 0.884 | > 10.2 µM
HCC-827 (lung adenocarcinoma, adherent) | 0.913 | > 10 µM | 0.979 | > 10 µM | 0.631 | 1.56 µM | 0.922 | > 5 µM | 0.941 | > 20 µM | 0.981 | > 40 µM | 0.949 | > 10.2 µM
HCT-15 (large intestine, adherent) | 0.987 | > 10 µM | 0.985 | > 10 µM | 0.541 | 0.836 µM | 0.85 | 4.17 µM | 0.985 | > 20 µM | 0.801 | 20.9 µM | 0.974 | > 10.2 µM
HDQ-P1 (breast, adherent) | 0.985 | > 10 µM | 0.964 | > 10 µM | 0.785 | 5.32 µM | 0.955 | > 5 µM | 0.983 | > 20 µM | 0.733 | 13.4 µM | 0.968 | > 10.2 µM
HEC-1 (endometrium, adherent) | 0.982 | > 10 µM | 0.986 | > 10 µM | 0.953 | > 10.2 µM | 0.839 | 3.24 µM | 0.909 | > 20 µM | 0.926 | > 40 µM | 0.989 | > 10.2 µM
HN (head and neck, adherent) | 0.952 | > 10 µM | 0.971 | > 10 µM | 0.966 | > 10.2 µM | 0.801 | 2.27 µM | 0.794 | 8.59 µM | 0.989 | > 40 µM | 0.983 | > 10.2 µM

Cell Line | AUC [1] | IC50 [1] | AUC [2] | IC50 [2] | AUC [3] | IC50 [3] | AUC [4] | IC50 [4] | AUC [5, 7] | IC50 [5, 7] | AUC [5, 8] | IC50 [5, 8] | AUC [6] | IC50 [6]
HO-1-u-1 (head and neck, adherent) | 0.872 | 8.8 µM | 0.95 | > 10 µM | 0.769 | 3.72 µM | 0.932 | > 5 µM | 0.87 | 17.4 µM | 0.84 | 25.9 µM | 0.897 | > 10.2 µM
HOS (osteosarcoma, adherent) | 0.963 | > 10 µM | 0.979 | > 10 µM | 0.974 | > 10.2 µM | 0.761 | 1.51 µM | 0.988 | > 20 µM | 0.988 | > 40 µM | 0.992 | > 10.2 µM
HSC-2 (head and neck, adherent) | 0.976 | > 10 µM | 0.885 | 9.46 µM | 0.691 | 2.1 µM | 0.919 | > 5 µM | 0.972 | > 20 µM | 0.981 | > 40 µM | 0.987 | > 10.2 µM
HT55 (large intestine, adherent) | 0.99 | > 10 µM | 0.99 | > 10 µM | 0.99 | > 10.2 µM | 0.985 | > 5 µM | 0.989 | > 20 µM | 0.92 | > 40 µM | 0.99 | > 10.2 µM
HT-3 (cervix, adherent) | 0.958 | > 10 µM | 0.983 | > 10 µM | 0.882 | > 10.2 µM | 0.899 | > 5 µM | 0.871 | 19.3 µM | 0.797 | 19.2 µM | 0.954 | > 10.2 µM
HT-115 (large intestine, adherent) | 0.991 | > 10 µM | 0.991 | > 10 µM | 0.991 | > 10.2 µM | 0.955 | > 5 µM | 0.977 | > 20 µM | 0.991 | > 40 µM | 0.991 | > 10.2 µM
HT-1080 (fibrosarcoma, adherent) | 0.985 | > 10 µM | 0.978 | > 10 µM | 0.791 | 4.07 µM | 0.807 | 2.24 µM | – | – | 0.977 | > 40 µM | 0.989 | > 10.2 µM
HT-1197 (bladder, adherent) | 0.945 | > 10 µM | 0.977 | > 10 µM | 0.861 | > 10.2 µM | 0.984 | > 5 µM | 0.861 | > 20 µM | 0.882 | > 40 µM | 0.983 | > 10.2 µM
HT-1376 (bladder, adherent) | 0.927 | > 10 µM | 0.975 | > 10 µM | 0.985 | > 10.2 µM | 0.904 | > 5 µM | 0.983 | > 20 µM | 0.985 | > 40 µM | 0.985 | > 10.2 µM
Hep 3B2_1-7 (liver, adherent) | 0.987 | > 10 µM | 0.879 | > 10 µM | 0.925 | > 10.2 µM | 0.84 | 3.44 µM | 0.872 | 19 µM | 0.932 | > 40 µM | 0.987 | > 10.2 µM
Hey (ovary, adherent) | 0.97 | > 10 µM | 0.969 | > 10 µM | 0.51 | 0.679 µM | 0.735 | 1.4 µM | 0.67 | 3.62 µM | 0.716 | 9.79 µM | 0.984 | > 10.2 µM
Hs633T (fibrosarcoma, adherent) | 0.882 | 7.28 µM | 0.969 | > 10 µM | 0.701 | 2.08 µM | 0.592 | 0.532 µM | 0.987 | > 20 µM | 0.855 | 23.1 µM | 0.982 | > 10.2 µM
Hs683 (glioma, adherent) | 0.984 | > 10 µM | 0.972 | > 10 µM | 0.534 | 0.794 µM | 0.815 | 2.79 µM | 0.987 | > 20 µM | 0.843 | 28.9 µM | 0.958 | > 10.2 µM
Hs746T (stomach, adherent) | 0.956 | > 10 µM | 0.948 | > 10 µM | 0.413 | 0.34 µM | 0.842 | > 5 µM | 0.853 | > 20 µM | 0.813 | 31.8 µM | 0.807 | 7.63 µM
Hs766T (pancreas, adherent) | 0.965 | > 10 µM | 0.966 | > 10 µM | 0.984 | > 10.2 µM | 0.891 | > 5 µM | 0.969 | > 20 µM | 0.942 | > 40 µM | 0.982 | > 10.2 µM
Hs939-T (melanoma, adherent) | 0.98 | > 10 µM | 0.968 | > 10 µM | 0.944 | > 10.2 µM | 0.949 | > 5 µM | 0.814 | 12.2 µM | 0.863 | > 40 µM | 0.986 | > 10.2 µM

Reference: the supplement of paper PMC4967469
